# Experimental data as given in the supplement of paper PMC3334620.
# Over roughly 33,000 sequences, “E-score (-0.5 to 0.5)” has its median near -0.01; the highest 2% begin near 0.26. This is one part of the list.
# Molecular target: Ste12 (UniProt P13574)
# Assay: PBM E-score (8-mer binding enrichment) (E-score (-0.5 to 0.5)); higher = stronger / more preferred TF binding; most listed sequences are background and not binding sites
# Settings: protein concentration: 200 nM; construct: GST-DNA-binding domain
# Outline: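 Yeast transcription factors, full-length or as DNA-binding domains, were expressed with a GST tag using PURExpress in vitro transcription/translation. At about 100-200 nM they were applied to universal all-10-mer Agilent arrays, double-stranded by primer extension on fresh or once-stripped slides. Fluorescent anti-GST detected bound protein, and masliner normalised the scans. E-scores for ungapped eight-base words, pooled with reverse complements, came from the Universal PBM Analysis Suite.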
row,Sequence,PBM E-score
1,ATACCTAG,0.0661
2,AAGAGGAG,-0.196
3,AAAAACTT,0.146
4,TCAAGACA,0.117
5,AGTTTGGC,-0.0448
6,AATAAAAG,0.035
7,CCAAGTCA,-0.00159
8,CCTGCTCC,-0.0949
9,AATCATGA,0.136
10,TCGCACGA,0.0351
11,GGGACTCA,-0.328
12,CCGAGGGA,-0.141
13,CGGGCCCC,-0.136
14,GGTGACAC,0.0658
15,AGGCGCCA,-0.107
16,CAGATTCG,0.193
17,CCAGACCC,-0.0377
18,ACCAGATG,0.0388
19,GCGATAGC,-0.161
20,TAGAGAAA,0.0197
21,CTAATTTC,0.0923
22,CAAATACA,0.212
23,CTGTGGGA,-0.0833
24,GCTTCATA,0.173
25,AAGCAAAA,0.142

row,Sequence,PBM E-score
1,CACACGGG,-0.0448
2,CTCGAAAC,0.215
3,AATACAAG,0.302
4,CAGCTCCA,-0.152
5,CCGCCCCC,-0.00614
6,CAAACAGG,-0.00741
7,CAGCGGGC,-0.266
8,AACTTCCC,-0.0625
9,GCGACCGA,-0.0219
10,CAGTTTCG,0.181
11,CTTCTGTA,-0.0644
12,GGGTTAAA,0.142
13,AATGGAGC,-0.0645
14,GGTCCGAC,-0.142
15,TAACCGCA,-0.018
16,CGATCAAA,0.105
17,AGGAATTA,0.0644
18,CCTCCCCG,0.283
19,AAGAAGTC,-0.0846
20,ATTTTTCA,0.222
21,AGAAGAGA,0.0223
22,ATGCTTGG,-0.0132
23,CTACGAGA,-0.0402
24,ATCGATCC,0.021
25,CATGCGCG,-0.235

row,Sequence,PBM E-score
1,AACTCGTA,0.143
2,CGCTCTGC,-0.0953
3,CATAGCGG,-0.207
4,ATTTCCTC,0.0672
5,ATCATGGA,0.102
6,GCCGCGGC,0.29
7,AACGCACA,0.09
8,CGAGCAGA,-0.00418
9,CGAGAAAG,0.0304
10,AAGTTTGC,0.0723
11,ATCCTCTA,-0.148
12,GGTAAGAA,-0.0428
13,ATTTTCAG,0.223
14,TCGACAAA,0.105
15,GCTAGCCC,-0.0936
16,CTCCCCAC,0.0871
17,CACGCGGG,-0.0962
18,CGAGGCTC,-0.172
19,CTAGCGGA,-0.0933
20,GTAAACCA,-0.00688
21,ATTCGTAG,-0.00086
22,AACCGAGA,0.189
23,AGTAATGC,0.0246
24,AGATGCAT,-0.141
25,CAACTCAG,0.0872

row,Sequence,PBM E-score
1,ACCTTACG,0.0785
2,GGATATTA,0.092
3,CCGTGCGC,-0.0188
4,AGGAGACC,-0.122
5,CGTGTGCC,-0.139
6,GCAGCCCC,-0.0443
7,ATGGCGCG,0.017
8,AACGTCGG,-0.0934
9,ATAGCTTA,-0.0978
10,CATGATGC,-0.0362
11,ATGGCTAG,-0.194
12,GTCGGAGA,0.0578
13,ACTGCTGC,-0.0761
14,TCCCCTAA,0.167
15,TCGCAAGA,0.0142
16,CTTGACGC,-0.0472
17,GTGCAAAA,0.009
18,AGTCAGCG,-0.121
19,GAACCACC,-0.0119
20,ATCCAGAG,0.12
21,CCATAGGA,-0.187
22,TCCAGGAA,-0.0739
23,AAATTCAG,0.165
24,CTTTTGCA,0.166
25,CACCCAAA,0.132

row,Sequence,PBM E-score
1,ACCAATAA,-0.0945
2,CTGCGTAA,-0.119
3,AGGTACGC,0.0829
4,CCTTATCG,0.258
5,GCTTCGCC,-0.298
6,AGCCGAAT,0.109
7,AACGCTGG,-0.14
8,ACGTATTC,0.00997
9,AAGATAGA,-0.0583
10,CAGGTATA,-0.0647
11,CATATCAA,0.228
12,GGCCCCAA,-0.177
13,CGCTAGGC,-0.112
14,TACGTACA,0.0295
15,AAGTCAGG,0.0527
16,ACTTGCGG,-0.213
17,ACCAGCTG,-0.191
18,ACCTGTGG,-0.239
19,CTATTGCA,0.0988
20,ACATGACT,-0.112
21,CGCAGTCA,-0.0938
22,ACGCATAC,-0.00196
23,ACCGTCGC,0.0497
24,ATAATCGA,0.193
25,CAGTTGGG,-0.0209

row,Sequence,PBM E-score
1,AGAGTGGG,-0.0757
2,ACTTCCGC,0.102
3,CAGTTCCC,0.142
4,CGCTGGAC,-0.0892
5,AGTTTCAC,0.338
6,CAGACTAG,-0.0565
7,CCATCGAA,0.0948
8,CACCAGTG,-0.159
9,ACGGCTGC,-0.113
10,CTCAGGAG,0.0425
11,TCCGACGA,-0.109
12,CAATTCCC,0.138
13,CATTGCAC,0.151
14,TGCGTCAA,0.0654
15,AACCTAGC,-0.0149
16,CCGTTGGA,-0.136
17,AGAGAGAG,-0.102
18,ATAACCCA,0.136
19,GATTGTCA,-0.034
20,CGGAGGGC,-0.241
21,ACATTAAT,0.211
22,CTTCAATC,0.00697
23,AAAATGAC,0.121
24,ACCCTCGA,-0.104
25,ATTGAGCA,-0.194

row,Sequence,PBM E-score
1,AAGCTGTA,0.113
2,GTACAAGA,-0.0216
3,AGCTGTTA,0.0174
4,AGAACCCT,-0.0638
5,CAAATAGA,0.0902
6,CTCCTAGA,-0.119
7,AAACAGCG,0.158
8,GTGGACGA,-0.0401
9,ACCACGAA,-0.00575
10,ACGTGATG,0.0516
11,CGTACCAA,-0.151
12,CTCTGTGA,0.0231
13,CTAGTACA,0.0611
14,GGCTATTA,0.0659
15,AGGTGAGA,0.121
16,AGAGCCGA,0.135
17,AGCTTTCC,-0.112
18,ATCCGAAC,0.0597
19,CATACGGG,-0.108
20,CAAGTATA,-0.0597
21,CACGGAGG,-0.133
22,AAATACTG,0.114
